The supplement of paper PMC12632987
Whole data set: some 2,300 sequences, median “median log2 fold change of GCK-ALFA target abundance (FLAG IP / Myc IP barcode read proportion)” near 0.095, cut for the lowest 2% near -0.47. This is one part of the list.

B1: LC3A_free_26_2147 (protein)
chain: SEYVDLYAIDEAEENLEEALKLLKELGNKNEELKKLLEEALKNVKKETLESLKKAEKNIKEAIKLVKEDKSLSEEDKKKLLELLEKALEKVEETIKIMES
B2: LC3A_13_342 (protein)
chain: TLRLEVETPEELRERGRALLEAHPGETIEIVVTVRDWEEAEAVARELAELIALAREKGSTLRITLRGPRSHVNYAAVLINSDILENGVDPNVTVTTEEVP
B3: LC3A_3_1655 (protein)
chain: MEELIEKTLEYLKKKGKSEEVLEAVRKALEALKEKGYEEAMKTFAELLKELEDLSDEILLAFAEDVLELAETEDIDEETMTEKIKEIAKTARNEAEIEEL
B4: LC3A_28_659 (protein)
chain: SKTRKSIEEAIKKAKEAKEKGEPAVITVTVTGDATEEDIDYVIEGLEEIAEILSSIPGSAIIIDLEAGVKEEFRDRIIDKAEELEKKYPNVTVIIAEEEE
B5: LC3A_28_716 (protein)
chain: SKLDESLKEALKKAKEAAEKGEEVVIEIEVPGDATEEDIEKVIKTLEEIAEILKDLPSQTIIINVDGKVKQEHIDKIADEAEKIEKKYPNVTVIIALDEN
B6: LC3A_3_1428 (protein)
chain: AEELLARARETLERVGLSPEARAAVLELVRRALAAGAEEEVEELIRTLEEAKNVDSERILEAAERALRRVEEEGVPIEEALRELIEEVRLLRLEEEIEEL
B7: LC3A_28_724 (protein)
chain: NRLEASIAAALARARALAAAGESDVIEITIPGDATEEDIERVIEALEEIAAITADLPRTDIVINVEGGVKQEHIDRLADAAEAIEARYPNVTVIIALDEE
B8: LC3A_free_46_2411 (protein)
chain: WVVDVTIDLLAAPQEKIDAVVARIVAGAKAIAAELGGELEIKVERFQNPDGTTSAIINITFTFDTREKAEQAAQRLGDLIDAIDEETGLVGLVSIDVSEA
B9: LC3A_28_735 (protein)
chain: SPLDKNLAAALAEARAAAAAGEPQVITITVPGTATQEDIEKVIKALEEIAEILKDVPDQTIIIDIEGGVPQEHIDKLMKAAEEIEKKYPNVTVIFALDED
B10: LC3A_free_39_2283 (protein)
chain: SAAERAEVLARLEAIAAELSPEAQALLREIVEEFRDDVEGLRALAEALERAKEEGVDMEEVLRRALAVLRQGRAAGLSLEERRAAVLAEIEDMINLQPID
B11: LC3A_free_39_2287 (protein)
chain: SEEELEEAVERLEELLEEIEGVSEEEKEIILEAARESLEMAKAILEALEELRRLGGDVAEAAREIAALIRELRAAGASLEERTAAVIEKARDLVNLIPID
B12: LC3A_45_1965 (protein)
chain: MYLATLDMLVPREHAEEVLEIAKEAMEELEKEYGEDLKVDREVLEASYEATKDEEEVLLRVEIYHPDEEKALDAAVELEERIRERSGVDIASIISLKKLP
B13: LC3A_28_1276 (protein)
chain: SAIDESLKKALEKAKEAKKKKESAVIEIDVPGDATEEDIDKVIKTLKEIAEILKDIPNQAIVVNVDGKVPQKYIDKIADEAEKIEKEYPNITVIIALGEE
B14: LC3A_141_352 (protein)
chain: MTLEYEFTIKGSDIEEALKKMEEIFEKIKEEMEKENAKSVEIEVTITSKNPKTGETTEEKIKETATKENLDLVLDSLEIEIASRVIGNDVDVKITVTFHK
B15: LC3A_147_515 (protein)
chain: MYEVDIDILVKREGEEEVLEELEEILEELREEGYEVEVLEKRIEREGDEVFIYVKVLIRAPTPEEAEKAVNRLISRLEELEEKHKDLILGSLISVEKIEP
B16: LC3A_free_46_2300 (protein)
chain: IVVEIDIYFGAAEKEKIEEAAERLTKTAKETAEKLGAEVEIDVKIIKNEDGTYTLEIKITVKVKTKEQANEFSKAIMDTVDELTKELGVAAIISIDLIEE
B17: LC3A_free_39_2259 (protein)
chain: SEEERRRALEELERAAAQASPKVREAVLALAELLRDNVEALKELLELLKRALEKGPKAVEILGEFAAEAVERIKAGEDKEKAFEELKKLAKAAIEIEEID
B18: LC3A_28_1168 (protein)
chain: SPTLESIEKALKEAKEAKEKKEPTVITIYVPGGTTEEETEKVIEAIEEIAELLKDIKGSAIIVDIDSGVKQEHIDKIIKKAEEVEKKYPNISVIIALDED
B19: LC3A_3_1628 (protein)
chain: MEEKVEELEKKLKEAGHDEETIEKFREVAELLIERGFEEALETLIEEMEKLLDAPSEIVLAMLEEILATVKTEDLNEEELIEKIKEIARIARNESEIIEL

What follows are binders tested against MAP1LC3A, Q9H492 (assay: median log2 fold change of GCK-ALFA target abundance (FLAG IP / Myc IP barcode read proportion) (log2 ratio); each designed protein is fused to an ALFA-tag nanobody in HEK293 cells to bring the named protein to FLAG-tagged glucokinase (GCK); Myc marks an untargeted standard; higher = target protein stabilised (more abundant)). Conditions: target protein: 3xFLAG-MCP-GCK-ALFA reporter; HEK293 landing pad (RPLP).
Procedure, shortened: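 Binders fused to an ALFA nanobody were recombined as a library into HEK293 landing-pad cells, which were induced with 2 μg mL^−1 doxycycline and then transfected to express a FLAG-tagged target and a Myc-tagged standard. After 48 h, circular RNA barcodes recovered by anti-FLAG and anti-Myc immunoprecipitation of lysates were reverse transcribed, amplified and sequenced. Each binder's target abundance is the median log2 ratio of FLAG to Myc barcode read proportions, from barcodes present at ≥10^−7 in both replicates, binders carrying ≥3 barcodes per replicate, a 10^−6 pseudocount and pooled replicates.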

Binder | median log2 fold change
B1 | -0.135
B2 | 0.255
B3 | 0.204
B4 | -0.0944
B5 | 0.283
B6 | 0.376
B7 | 0.154
B8 | 0.135
B9 | -0.245
B10 | 0.242
B11 | 0.257
B12 | -0.327
B13 | -0.0267
B14 | 0.258
B15 | -0.205
B16 | 0.00315
B17 | 0.156
B18 | -0.224
B19 | 0.147
